Measurements taken from the supplement of paper PMC3334620.
In all, about 33,000 sequences were measured (“E-score (-0.5 to 0.5)”: median about -0.021, highest 2% from about 0.32 on). Some of the results follow.

target: T1, Zap1 (UniProt P47043); test: PBM E-score (8-mer binding enrichment) (E-score (-0.5 to 0.5)); higher = stronger / more preferred TF binding; most listed sequences are background and not binding sites; conditions: protein concentration: 200 nM; construct: GST-full length
T1 sequence: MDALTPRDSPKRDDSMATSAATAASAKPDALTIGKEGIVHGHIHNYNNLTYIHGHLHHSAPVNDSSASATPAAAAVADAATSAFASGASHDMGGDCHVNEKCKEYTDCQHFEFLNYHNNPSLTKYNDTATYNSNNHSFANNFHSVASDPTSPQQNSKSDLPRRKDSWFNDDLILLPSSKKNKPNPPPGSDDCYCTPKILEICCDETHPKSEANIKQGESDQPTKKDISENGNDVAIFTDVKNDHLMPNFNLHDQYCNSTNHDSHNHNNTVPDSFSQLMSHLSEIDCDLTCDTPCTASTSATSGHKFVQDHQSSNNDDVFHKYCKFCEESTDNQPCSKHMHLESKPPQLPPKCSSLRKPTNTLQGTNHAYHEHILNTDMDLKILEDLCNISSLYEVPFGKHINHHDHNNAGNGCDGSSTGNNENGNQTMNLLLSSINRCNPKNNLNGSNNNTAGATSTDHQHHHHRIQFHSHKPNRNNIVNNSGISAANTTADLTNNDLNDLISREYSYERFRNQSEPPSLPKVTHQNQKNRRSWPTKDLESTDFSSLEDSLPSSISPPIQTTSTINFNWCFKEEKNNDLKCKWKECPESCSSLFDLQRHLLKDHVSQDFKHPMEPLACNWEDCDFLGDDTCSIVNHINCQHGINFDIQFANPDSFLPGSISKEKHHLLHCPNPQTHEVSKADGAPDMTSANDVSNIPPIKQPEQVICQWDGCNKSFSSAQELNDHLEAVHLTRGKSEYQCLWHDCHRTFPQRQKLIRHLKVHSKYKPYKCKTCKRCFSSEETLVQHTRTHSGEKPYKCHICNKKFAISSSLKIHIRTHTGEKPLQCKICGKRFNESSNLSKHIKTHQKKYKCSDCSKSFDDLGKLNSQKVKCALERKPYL
Method in brief: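 The E-score, a modified Wilcoxon-Mann-Whitney statistic, was computed by the Universal PBM Analysis Suite for every ungapped eight-base word pooled with its reverse complement. Scans behind it were normalised with masliner after bound GST-tagged yeast transcription factors were detected with fluorescent anti-GST. The proteins, at about 100-200 nM, had been applied to universal all-10-mer Agilent arrays made double-stranded by primer extension.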

Sequence | PBM E-score
ACAAATTA | 0.142
ATGGGTCA | 0.359
CCCGACAC | -0.214
CAAGTTGG | 0.121
ATCCCATA | 0.117
AGTCACAA | 0.161
ATACTGCG | -0.0551
CATGGTCC | 0.0076
GTATGAGA | 0.0741
CATGCGGC | -0.0959
ATAGCAAA | 0.113
GCAAGCCC | -0.1
AAGCGCGG | -0.169
ATGAGGAA | 0.0546
CCAAGCGA | -0.12
GATGCATA | -0.178
CCCCCCCA | -0.335
ACTGGTGA | -0.0129
CCTTAATA | 0.167
CACTCTCC | -0.118
CAAGATAG | -0.0554
GGTACAGA | 0.159
GCGATTAC | -0.0228
CATCCTGC | -0.302
GACCGCGA | 0.259

Sequence | PBM E-score
CCACTCAC | 0.00202
GCGTGAGA | -0.0239
ATTTTTGC | 0.061
ATTGTCGG | -0.123
AACCTTTC | 0.324
CGGAAAAG | -0.103
CTAGAGCC | -0.285
CCACAACC | 0.411
AACCAGCA | 0.3
AAGAGAGT | -0.196
GGTATCAA | 0.0873
AGCACGAG | -0.11
CGAGAACG | -0.143
ATGTCGCG | 0.0309
AGGGATCC | -0.152
ACTTGTTC | -0.00394
GCGAGACC | 0.2
GCTGACCA | 0.161
GAAGAACC | 0.111
AATGAATT | 0.123
CCTCCCGC | -0.0216
ACAGGACC | 0.0616
AGACCGAT | 0.0418
AGCATCCC | -0.16
CACATGGG | -0.117

Sequence | PBM E-score
AGTGGGTA | 0.112
GTTGGGGA | -0.00188
AAAAACGA | 0.212
TATGGGAA | -0.0198
ACTACAAC | 0.119
CACGCAGA | -0.0783
TCTCCGCA | -0.174
CAGGTACC | 0.415
AGTCTGCG | -0.275
GAACGGGC | -0.264
CCTCCTCG | -0.229
GAAGCGTC | -0.275
GTAGCCCA | -0.0588
GCAGGGGA | -0.177
AGCCTGGC | -0.293
CGGAACGC | -0.215
CCGGAGTC | -0.0405
CGGACCTC | -0.0859
GCTATAGA | -0.136
GATGCGGC | -0.118
AGTTTAAC | 0.0788
CGAGACTA | -0.0504
CGCTTGGC | -0.303
AGTAGACC | -0.037
CACCCCTA | 0.0983

Sequence | PBM E-score
CTGCCTGC | -0.22
CACCGCCG | -0.124
CAATATGA | -0.0378
ATACCCTA | 0.459
AATCTCTA | 0.0108
CGTTGCAA | 0.0148
GCTAAGAC | -0.124
CAAGCTCG | -0.0494
ATAAACGC | -0.221
CCGTTGGC | -0.157
CTGTATCC | -0.00943
CCGATCAC | -0.0109
CTAGGGCC | -0.0851
TAAACCGA | -0.0627
GTTCGTCA | -0.0052
AGCCCTGC | -0.192
AGGGCCAT | 0.00699
CGTGGGGA | 0.0107
GCAGGTGA | -0.0435
CTCATGTC | -0.109
AACGGCTT | -0.209
AGCCATGG | -0.1
TACGGCTA | -0.0641
AGCCTTCC | -0.343
ATCGGTTC | 0.0913

Sequence | PBM E-score
CAGATGAG | -0.0683
AGAGCTGG | -0.197
GGGGCCAA | -0.069
GACTGTAA | 0.0478
GGAGCCCA | -0.166
GCCTTTGA | 0.0766
GTAGTTAA | 0.2
ACTTAGGA | -0.067
CAGGCCAC | -0.134
AGTAGATG | -0.0249
CCGCTAAG | 0.101
CGGGCCCG | -0.019
AGCTCCGA | -0.184
CAGACGCG | 0.0199
ACCGGGAA | 0.118
GTGACACA | -0.0403
AGGGGTAC | 0.398
CTATTCAA | 0.205
GGGAGTAA | 0.101
AGCTTGGC | 0.0137
ACTCATTG | -0.0633
AGCACGCG | -0.131
GAGACGAA | -0.0952
CTTCGTTC | -0.232
CGTGTTCC | -0.156

Sequence | PBM E-score
CGAGACCC | 0.248
GCGTCTCC | -0.163
AGGTGCCA | 0.0049
AGATGGAG | -0.146
CTTGATGC | -0.106
GAAAAAAC | 0.137
CTTTCTCA | 0.129
ATAATGAT | 0.118
GCGGTAGC | 0.0107
ATACCACA | 0.193
ATACGGTA | 0.151
GAGTAGGC | -0.277
CACCTGGC | -0.0369
ACCCAACC | 0.178
TCGGCAGA | -0.16
AAGAACTT | -0.0276
ACCTAACC | 0.269
CCAATCTC | 0.0579
CCAAATAA | 0.182
GTATCTTA | 0.135
ATGGTATG | -0.053
ACATGACA | 0.0802
AAATCAAG | 0.00887
ACCGCTTC | -0.148
CCAGGTGA | 0.027

Sequence | PBM E-score
AGGGGGAC | -0.23
AACGAGGT | 0.277
CCTCCGGA | -0.0743
GTGTTTTA | 0.0887
ATTAACCA | 0.246
CCGAGCAG | -0.0159
AACACCAG | -0.134
TAGGGGGA | -0.226
TTTCAAAA | 0.321
AACTGGTA | 0.0786
TCAGCAGA | -0.21
AGTACACT | -0.171
GTTCCGAA | 0.149
CTAATGGA | 0.0657
ACGAGGCT | 0.0827
CTATATTC | 0.0564
CCCCGATC | -0.087
GGGCATGA | -0.241
CGGTCTCA | 0.035
GTCCCTCA | -0.108
AGTTAAAT | 0.0523
GTCAAGCA | -0.238
AGTCGCTG | -0.0667
TAAGTGGA | 0.163
ATTCAACC | 0.126

Sequence | PBM E-score
ACAGTAAG | 0.048
ATCTCCAA | 0.0334
CCGGAAGC | -0.156
AAGTGAGA | -0.0484
CTACAATA | 0.145
TAACTGCA | 0.0396
CGCTCGTA | -0.0143
GCTACAAC | 0.00769
TAGCGGGA | -0.132
TCGATGAA | -0.102
ATTCTCTC | -0.0801
ATCATCAA | 0.0384
GCGGTGAC | 0.19
TAAGGCCA | 0.0396
GCGATTGA | -0.0546
CTACGCGC | -0.0598
CGAGCAAG | -0.123
ACAGTTCT | -0.0571
TCTGCGAA | -0.217
ACGTGTCA | -0.153
GACTCAGC | -0.199
ACTCAGTA | 0.033
CAACGCCG | -0.0924
CCACAAGC | 0.0428
CCGTGTAA | -0.125

Sequence | PBM E-score
AAGGCACC | 0.0852
CTACTCAA | 0.165
CAGCTTTC | -0.138
GCGGGGCA | -0.179
AACAGAAG | -0.0982
CTGCTCTC | -0.18
GCATCTAC | -0.1
GACGACCC | 0.173
CGCCGTAC | -0.0521
ACTCCGAG | -0.109
ACCTCGGG | 0.2
GAGGGTAA | 0.264
GTTTTATA | 0.0924
ACGATTCT | -0.156
ACTCAATG | 0.0233
GACAGATC | -0.128
ACAAAACC | 0.312
AACTCCCT | -0.0262
CATTTATC | -0.0103
